# Laboratory results: PubChem BioAssay AID686978 (National Center for Advancing Translational Sciences (NCATS), 2013)
# Screen size: about 420,000 compounds; about 64,000 (15%) were called active. The inconclusive results got no clear call from the source; some entries with a clear call stand among them for comparison. Calls come from the whole dose curve; as a rule, active = well fitted inhibition curve with a large enough effect; inconclusive = small, poorly fitted or top-dose-only effect; inactive = flat fitted curve, though single readings scatter. No potency is given beside an inconclusive call; the fits are too rough.
# Test: qHTS for Inhibitors of human tyrosyl-DNA phosphodiesterase 1 (TDP1): qHTS in cells in absence of CPT; note: nearly all actives have a fitted effect of over 55% in size
# Settings: DT40 Tdp1-/- hTDP1 cells, no CPT, ATP luminescence, 48 h; series mostly up to 46.2 µM
# Summary of the method: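 Chicken DT40 Tdp1-/- cells complemented with human TDP1, screened without camptothecin (DMSO vehicle only), 400 cells/well. Compounds pin-transferred, cells incubated at 37 °C for at least 48 hr. Growth read as ATP-dependent luminescence (CellTiter-Glo, 30 min at RT).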
# Potency is the fitted concentration of half-maximal effect; tags give direction and shape of the fitted curve.
row,Compound,Potency
1,COc1cc2ccccc2cc1C(=O)OCC(=O)c1c(N)n(C)c(=O)n(C)c1=O,"inconclusive [inhibitor, single point]"
2,CN1CCN(c2ccccc2NC(=O)c2ccc(-c3cccc([N+](=O)[O-])c3)o2)CC1,active: 14.6 µM
3,CCCn1ncc(CN2CCC(n3nccc3NC(=O)c3ccccc3OC)CC2)c1C,inactive
4,CCOc1ccc(C(C)=O)cc1COC(=O)c1ccc2c(c1)NC(=O)CS2,"inconclusive [inhibitor, single point]"
5,CC(C)Cn1c(Cc2ccccc2)n[nH]c1=S,inactive
6,Cc1ccc(OC(=O)c2sc(Cl)nc2C)cc1C,inactive
7,Cc1ccc2oc(=O)n(CC(=O)c3ccc(F)cc3)c2c1,inactive
8,COc1cccc(N(CC(=O)N2CCN(Cc3ccccc3)CC2)S(C)(=O)=O)c1,inactive
9,COc1ccc(CC(=O)Nc2ncc([N+](=O)[O-])s2)cc1OC,"inconclusive [inhibitor, single point]"
10,Cc1ccccc1-c1nnc(SCC(=O)N(C)c2ccccc2)o1,"inconclusive [inhibitor, single point]"
11,C(=Cc1cnc2ccccc2n1)c1ccc2c(c1)OCO2,"inconclusive [inhibitor, partial curve, poor fit]"
12,Cn1c(=O)c2nc(-c3ccccc3)c(-c3ccccc3)nc2n(C)c1=O,active: 20.6 µM
13,COc1ccc(NC(=O)Nc2sc(=S)n(C)c2C)cc1,"inconclusive [inhibitor, single point]"
14,Cc1cccc(OCc2nnc(SCC(=O)NC3CCCCC3)n2C)c1,inactive
15,CC(=O)c1c(N2CCN(C)CC2)nc(=S)n(Cc2ccccc2)c1C,inactive
16,COC(=O)CSc1nc(N2CCCCC2)c2c(c1C#N)CCCC2,active: 23.1 µM
17,COc1cc(C(=O)N2CCNC(=O)C2CC(=O)Nc2ccc(C)c(C)c2)cc(OC)c1OC (centres undefined),inactive
18,CC(C)NS(=O)(=O)c1ccc(OCC(=O)NCCC2=CCCCC2)cc1,"inconclusive [inhibitor, single point]"
19,O=C(COc1cccc(Oc2ccccc2)c1)Nc1ccc(SC(F)F)cc1,"inconclusive [inhibitor, single point]"
20,CSc1c(-c2ccccn2)c(N)nn1C(=O)C1CC1,"inconclusive [inhibitor, partial curve]"
21,Cc1ccc(-c2nc(-c3ccncc3)no2)cc1Cl,inactive
22,O=Cc1cn(-c2ccccc2)nc1-c1cc2c(ccc3ccccc32)oc1=O,inactive
23,CN(C)c1oc(-c2ccccc2Cl)nc1S(=O)(=O)c1ccccc1,active: 20.6 µM
24,Cc1ccc(Cn2c(C3CCCN3c3nc(C)cs3)nc3cc(C(F)(F)F)ccc32)cc1 (centres undefined),active: 20.6 µM
25,CCCCNc1nc2c(-c3cccc(C)c3)nnn2c2ccccc12,inactive

row,Compound,Potency
1,Cc1ccc(S(=O)(=O)NCc2ccc(C(=O)N3CCN(c4ccccn4)CC3)cc2)cc1,"inconclusive [inhibitor, partial curve, poor fit]"
2,Cc1ccccc1Nc1nc(Cl)nc(NC(C)(C)C)n1,inactive
3,C(=N\Nc1ccc2ccccc2n1)/c1ccc2c(c1)OCCO2,"inconclusive [inhibitor, single point]"
4,O=C(NC(Cc1ccc2c(c1)OCO2)C(=O)NC(Cc1ccccc1)C(=O)O)c1ccccc1 (centres undefined),inactive
5,Cc1ccc2nc(N3CCN(C(=O)c4cccs4)CC3)c(C#N)cc2c1,active: 14.6 µM
6,CCn1nc(C(=O)Nc2cc(Cl)ccc2-n2cncn2)c2ccccc2c1=O,inactive
7,Cc1[nH][nH]c(=O)c1C(c1ccc(-c2ccccc2C(=O)O)o1)c1c(C)[nH][nH]c1=O,inactive
8,O=C(OCc1nnc(-c2ccccc2)o1)c1cn(-c2ccccc2)nc1-c1ccccc1,"inconclusive [inhibitor, single point]"
9,Cc1csc2ncc(C(=O)NCc3ccco3)c(=O)n12,inactive
10,CCc1ccc(NS(=O)(=O)c2ccc3[nH]cc(C(=O)N4CCc5ccccc54)c(=O)c3c2)cc1,inactive
11,Cc1ccc(S(=O)(=O)Nc2cc3c(C(=O)OCc4ccccc4)c(C)oc3c3ccccc23)c(C)c1,"inconclusive [inhibitor, single point]"
12,Cc1cccc(CN2CCN(c3nc4nonc4nc3NC3CC3)CC2=O)c1,inactive
13,Clc1ccc(CSc2ccc(-c3ccccn3)nn2)cc1,"inconclusive [inhibitor, single point]"
14,Cc1cccc(OCC(=O)Nc2cccc(C(=O)OCc3cc(=O)n4nc(C(C)C)sc4n3)c2)c1,active: 11.6 µM
15,CCCCOc1c(Br)cc(CNCCCN2CCOCC2)cc1OC,active: 13 µM
16,O=C(O)c1ccccc1NC(=O)c1cc(-c2ccccc2)nc2ccccc12,"inconclusive [inhibitor, single point]"
17,CC(C)(C)OC(=O)N1CCCN(C(=O)Nc2ccc(C(F)(F)F)cc2)CC1,"inconclusive [inhibitor, single point]"
18,COc1ccc(S(=O)(=O)Cc2ccccc2)cc1N,"inconclusive [inhibitor, single point]"
19,COc1ccc2c(c1)c1c(c(=O)n(-c3ccccc3C)c(=O)n1CC(N)=O)n2C,"inconclusive [inhibitor, single point]"
20,CN(CC(=O)Nc1ccccc1Cl)C(=O)c1ccc(Cl)c(S(=O)(=O)N2CCCCCC2)c1,"inconclusive [inhibitor, partial curve]"
21,CC(C)CCNC(=O)COc1ccc2c(c1)C(=O)CC(C)(C)O2,"inconclusive [inhibitor, single point]"
22,COc1ccc(C(C)=O)cc1COC(=O)c1ccc(OCc2c(C)noc2C)cc1,inactive
23,COc1ccccc1/C=N/NC(=O)NC12CC3CC(CC(C3)C1)C2,"inconclusive [inhibitor, single point]"
24,O=C(/C=C/c1cccs1)NC1CCS(=O)(=O)C1 (centres undefined),"inconclusive [inhibitor, single point]"
